{"source": "the supplement of paper PMC8728848", "assay_in_all_cases": "glycan array binding signal (z-score within array); higher = stronger binding", "details_in_all_cases": "glycan notation: IUPAC condensed, linker removed", "key": {"[1]": {"target": "Man(a1-2)Man(a1-2)Man(a1-3)Man", "procedure,_shortened": "(§1)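 Glycan array data came from 3228 arrays in the Consortium for Functional Glycomics database, and only arrays with an available protein sequence were kept. Glycan names were put into IUPAC-condensed notation, and columns mapping to the same glycan were averaged. The binding signal is a within-array Z-score, averaged across arrays of one protein sequence run at different concentrations or buffers and across linkers. A negative Z-score can be read as non-binding.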"}, "[2]": {"target": "Man(a1-2)Man(a1-2)Man(a1-6)[Man(a1-3)]Man", "procedure,_shortened": "as §1"}, "Man(a1-2)Man(a1-3)Man": {"target": "Man(a1-2)Man(a1-3)Man", "procedure,_shortened": "as §1"}, "[3]": {"target": "Man(a1-2)Man(a1-3)[Man(a1-2)Man(a1-6)]Man", "procedure,_shortened": "as §1"}, "[4]": {"target": "Man(a1-2)Man(a1-3)[Man(a1-2)Man(a1-6)]Man(a1-6)[Man(a1-2)Man(a1-2)Man(a1-3)]Man", "procedure,_shortened": "as §1"}, "[5]": {"target": "Man(a1-2)Man(a1-3)[Man(a1-2)Man(a1-6)]Man(a1-6)[Man(a1-2)Man(a1-2)Man(a1-3)]Man(b1-4)GlcNAc(b1-4)GlcNAc", "procedure,_shortened": "as §1"}, "[6]": {"target": "Man(a1-2)Man(a1-3)[Man(a1-6)]Man(a1-6)[Man(a1-2)Man(a1-3)]Man(b1-4)GlcNAc(b1-4)GlcNAc", "procedure,_shortened": "as §1"}, "[7]": {"target": "Man(a1-2)Man(a1-6)[Man(a1-3)]Man(a1-6)[Man(a1-2)Man(a1-2)Man(a1-3)]Man", "procedure,_shortened": "as §1"}, "[8]": {"target": "Man(a1-2)Man(a1-6)[Man(a1-3)]Man(a1-6)[Man(a1-2)Man(a1-2)Man(a1-3)]Man(b1-4)GlcNAc(b1-4)GlcNAc", "procedure,_shortened": "as §1"}, "Man(a1-3)[Man(a1-6)]Man": {"target": "Man(a1-3)[Man(a1-6)]Man", "procedure,_shortened": "as §1"}, "[9]": {"target": "Man(a1-3)[Man(a1-6)]Man(a1-6)[Man(a1-2)Man(a1-3)]Man(b1-4)GlcNAc(b1-4)GlcNAc", "procedure,_shortened": "as §1"}, "[10]": {"target": "Man(a1-3)[Man(a1-6)]Man(a1-6)[Man(a1-3)]Man", "procedure,_shortened": "as §1"}, "[11]": {"target": "Man(a1-3)[Man(a1-6)]Man(a1-6)[Man(a1-3)]Man(b1-4)GlcNAc(b1-4)GlcNAc", "procedure,_shortened": "as §1"}, "[12]": {"target": "Man(a1-3)[Man(a1-6)]Man(b1-4)GlcNAc(b1-4)GlcNAc", "procedure,_shortened": "as §1"}, "Man(a1-6)Man": {"target": "Man(a1-6)Man", "procedure,_shortened": "as §1"}, "Man(b1-4)GlcNAc": {"target": "Man(b1-4)GlcNAc", "procedure,_shortened": "as §1"}, "Neu5Ac(a2-3)Gal": {"target": "Neu5Ac(a2-3)Gal", "procedure,_shortened": "as §1"}, "[13]": {"target": "Neu5Ac(a2-3)Gal(b1-3)GalNAc", "procedure,_shortened": "as §1"}, "[14]": {"target": "Neu5Ac(a2-3)Gal(b1-3)GalNAc(b1-3)Gal(a1-4)Gal(b1-4)Glc", "procedure,_shortened": "as §1"}, "[15]": {"target": "Neu5Ac(a2-3)Gal(b1-3)GalNAc(b1-3)Gal(b1-4)GlcNAc", "procedure,_shortened": "as §1"}, "[16]": {"target": "Neu5Ac(a2-3)Gal(b1-3)GalNAc(b1-4)[Neu5Ac(a2-3)]Gal(b1-4)Glc", "procedure,_shortened": "as §1"}, "[17]": {"target": "Neu5Ac(a2-3)Gal(b1-3)GalNAc6S", "procedure,_shortened": "as §1"}, "[18]": {"target": "Neu5Ac(a2-3)Gal(b1-3)GlcNAc", "procedure,_shortened": "as §1"}, "[19]": {"target": "Neu5Ac(a2-3)Gal(b1-3)GlcNAc(b1-3)Gal(b1-3)GlcNAc", "procedure,_shortened": "as §1"}, "[20]": {"target": "Neu5Ac(a2-3)Gal(b1-3)GlcNAc6S", "procedure,_shortened": "as §1"}, "[21]": {"target": "Neu5Ac(a2-3)Gal(b1-3)[Fuc(a1-4)]GlcNAc", "procedure,_shortened": "as §1"}, "[22]": {"target": "Neu5Ac(a2-3)Gal(b1-3)[Fuc(a1-4)]GlcNAc(b1-3)Gal(b1-3)[Fuc(a1-4)]GlcNAc", "procedure,_shortened": "as §1"}, "[23]": {"target": "Neu5Ac(a2-3)Gal(b1-3)[Fuc(a1-4)]GlcNAc(b1-3)Gal(b1-4)[Fuc(a1-3)]GlcNAc", "procedure,_shortened": "as §1"}, "[24]": {"target": "Neu5Ac(a2-3)Gal(b1-3)[Neu5Ac(a2-3)Gal(b1-4)]GlcNAc", "procedure,_shortened": "as §1"}, "[25]": {"target": "Neu5Ac(a2-3)Gal(b1-3)[Neu5Ac(a2-6)]GalNAc", "procedure,_shortened": "as §1"}, "Neu5Ac(a2-3)Gal(b1-4)Glc": {"target": "Neu5Ac(a2-3)Gal(b1-4)Glc", "procedure,_shortened": "as §1"}, "[26]": {"target": "Neu5Ac(a2-3)Gal(b1-4)GlcNAc", "procedure,_shortened": "as §1"}, "[27]": {"target": "Neu5Ac(a2-3)Gal(b1-4)GlcNAc(b1-2)Man(a1-3)[GlcNAc(b1-2)Man(b1-4)GlcNAc(b1-2)Man(a1-6)]Man(b1-4)GlcNAc(b1-4)GlcNAc", "procedure,_shortened": "as §1"}, "[28]": {"target": "Neu5Ac(a2-3)Gal(b1-4)GlcNAc(b1-2)Man(a1-3)[Neu5Ac(a2-6)Gal(b1-4)GlcNAc(b1-2)Man(a1-6)]Man(b1-4)GlcNAc(b1-4)GlcNAc", "procedure,_shortened": "as §1"}, "[29]": {"target": "Neu5Ac(a2-3)Gal(b1-4)GlcNAc(b1-3)Gal(b1-3)GlcNAc", "procedure,_shortened": "as §1"}, "[30]": {"target": "Neu5Ac(a2-3)Gal(b1-4)GlcNAc(b1-3)Gal(b1-4)GlcNAc", "procedure,_shortened": "as §1"}, "[31]": {"target": "Neu5Ac(a2-3)Gal(b1-4)GlcNAc(b1-3)Gal(b1-4)GlcNAc(b1-3)Gal(b1-4)GlcNAc", "procedure,_shortened": "as §1"}, "[32]": {"target": "Neu5Ac(a2-3)Gal(b1-4)GlcNAc(b1-3)Gal(b1-4)[Fuc(a1-3)]GlcNAc", "procedure,_shortened": "as §1"}, "[33]": {"target": "Neu5Ac(a2-3)Gal(b1-4)GlcNAc(b1-3)GalNAc", "procedure,_shortened": "as §1"}, "[34]": {"target": "Neu5Ac(a2-3)Gal(b1-4)GlcNAc(b1-6)[Gal(b1-3)]GalNAc", "procedure,_shortened": "as §1"}, "[35]": {"target": "Neu5Ac(a2-3)Gal(b1-4)GlcNAc(b1-6)[Neu5Ac(a2-3)Gal(b1-3)]GalNAc", "procedure,_shortened": "as §1"}, "[36]": {"target": "Neu5Ac(a2-3)Gal(b1-4)GlcNAc6S", "procedure,_shortened": "as §1"}, "[37]": {"target": "Neu5Ac(a2-3)Gal(b1-4)[Fuc(a1-3)]GlcNAc", "procedure,_shortened": "as §1"}, "[38]": {"target": "Neu5Ac(a2-3)Gal(b1-4)[Fuc(a1-3)]GlcNAc(b1-3)Gal", "procedure,_shortened": "as §1"}, "[39]": {"target": "Neu5Ac(a2-3)Gal(b1-4)[Fuc(a1-3)]GlcNAc(b1-3)Gal(b1-4)GlcNAc", "procedure,_shortened": "as §1"}}, "note": "This is one part of the list."}
{"binder": "DC-SIGN (Canis lupus), XP_853402 (protein) AGLCRPCPWKWELFQESCYFFSQTQNTWKESISACQNLRAQLVIINSTEEQKFLKSWNTRNNQRTWIGLSDHHNEGSWKWVDNTPLQLSFWKEGEPNNHGDEDCVELYSDGWNDNRCSTENFWICKKPSSPCPGPGLNDIFEAQKIEWHE", "values": [{"measurement": "glycan array binding signal (z-score)", "setting": "[1]", "result": 7.92}, {"measurement": "glycan array binding signal (z-score)", "setting": "[2]", "result": 0.141}, {"measurement": "glycan array binding signal (z-score)", "setting": "Man(a1-2)Man(a1-3)Man", "result": 0.094}, {"measurement": "glycan array binding signal (z-score)", "setting": "[3]", "result": 3.37}, {"measurement": "glycan array binding signal (z-score)", "setting": "[4]", "result": 7.69}, {"measurement": "glycan array binding signal (z-score)", "setting": "[5]", "result": 4.83}, {"measurement": "glycan array binding signal (z-score)", "setting": "[6]", "result": 2.86}, {"measurement": "glycan array binding signal (z-score)", "setting": "[7]", "result": 1.56}, {"measurement": "glycan array binding signal (z-score)", "setting": "[8]", "result": -0.361}, {"measurement": "glycan array binding signal (z-score)", "setting": "Man(a1-3)[Man(a1-6)]Man", "result": -0.103}, {"measurement": "glycan array binding signal (z-score)", "setting": "[9]", "result": 11.8}, {"measurement": "glycan array binding signal (z-score)", "setting": "[10]", "result": -0.277}, {"measurement": "glycan array binding signal (z-score)", "setting": "[11]", "result": 0.127}, {"measurement": "glycan array binding signal (z-score)", "setting": "[12]", "result": -0.281}, {"measurement": "glycan array binding signal (z-score)", "setting": "Man(a1-6)Man", "result": -0.096}, {"measurement": "glycan array binding signal (z-score)", "setting": "Man(b1-4)GlcNAc", "result": -0.115}, {"measurement": "glycan array binding signal (z-score)", "setting": "Neu5Ac(a2-3)Gal", "result": -0.172}, {"measurement": "glycan array binding signal (z-score)", "setting": "[13]", "result": -0.324}, {"measurement": "glycan array binding signal (z-score)", "setting": "[14]", "result": 0.708}, {"measurement": "glycan array binding signal (z-score)", "setting": "[15]", "result": -0.191}, {"measurement": "glycan array binding signal (z-score)", "setting": "[16]", "result": -0.157}, {"measurement": "glycan array binding signal (z-score)", "setting": "[17]", "result": -0.178}, {"measurement": "glycan array binding signal (z-score)", "setting": "[18]", "result": -0.344}, {"measurement": "glycan array binding signal (z-score)", "setting": "[19]", "result": -0.147}, {"measurement": "glycan array binding signal (z-score)", "setting": "[20]", "result": 0.031}, {"measurement": "glycan array binding signal (z-score)", "setting": "[21]", "result": -0.173}, {"measurement": "glycan array binding signal (z-score)", "setting": "[22]", "result": 0.318}, {"measurement": "glycan array binding signal (z-score)", "setting": "[23]", "result": -0.201}, {"measurement": "glycan array binding signal (z-score)", "setting": "[24]", "result": -0.171}, {"measurement": "glycan array binding signal (z-score)", "setting": "[25]", "result": 0.063}, {"measurement": "glycan array binding signal (z-score)", "setting": "Neu5Ac(a2-3)Gal(b1-4)Glc", "result": -0.236}, {"measurement": "glycan array binding signal (z-score)", "setting": "[26]", "result": -0.217}, {"measurement": "glycan array binding signal (z-score)", "setting": "[27]", "result": -0.275}, {"measurement": "glycan array binding signal (z-score)", "setting": "[28]", "result": -0.227}, {"measurement": "glycan array binding signal (z-score)", "setting": "[29]", "result": -0.222}, {"measurement": "glycan array binding signal (z-score)", "setting": "[30]", "result": -0.348}, {"measurement": "glycan array binding signal (z-score)", "setting": "[31]", "result": -0.19}, {"measurement": "glycan array binding signal (z-score)", "setting": "[32]", "result": -0.24}, {"measurement": "glycan array binding signal (z-score)", "setting": "[33]", "result": -0.268}, {"measurement": "glycan array binding signal (z-score)", "setting": "[34]", "result": -0.163}, {"measurement": "glycan array binding signal (z-score)", "setting": "[35]", "result": -0.286}, {"measurement": "glycan array binding signal (z-score)", "setting": "[36]", "result": -0.127}, {"measurement": "glycan array binding signal (z-score)", "setting": "[37]", "result": -0.257}, {"measurement": "glycan array binding signal (z-score)", "setting": "[38]", "result": -0.254}, {"measurement": "glycan array binding signal (z-score)", "setting": "[39]", "result": 0.258}]}
